These are yes or no findings as the source states them, for the method shown. Some entries that bind do so weakly or less than the wild type.
How the values were obtained:
Experiment in all cases: two-hybrid; S. cerevisiae L40; LexA DBD fusion with VP16 AAD-NR fusion; β-galactosidase activity in cell-free extracts; vehicle only or no ligand
LexA-BCL11A RID2 W659A = molecular target: T1, LexA-BCL11A RID2 W659A (UniProt Q9H165)
T1 sequence: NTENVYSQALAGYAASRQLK

LexA-BCL11A-(651–670) = molecular target: T2, LexA-BCL11A-(651–670) (UniProt Q9H165)
T2 sequence: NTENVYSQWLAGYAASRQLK

LexA-BCL11A-(594–707) = molecular target: T3, LexA-BCL11A-(594–707) (UniProt Q9H165)
T3 sequence: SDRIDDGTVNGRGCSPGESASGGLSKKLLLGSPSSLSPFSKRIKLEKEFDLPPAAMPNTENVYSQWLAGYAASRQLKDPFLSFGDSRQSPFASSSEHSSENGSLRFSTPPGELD

LexA-BCL11A RID2 L660A = molecular target: T4, LexA-BCL11A RID2 L660A (UniProt Q9H165)
T4 sequence: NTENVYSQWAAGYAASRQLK

LexA-BCL11A RID2 V655A = molecular target: T5, LexA-BCL11A RID2 V655A (UniProt Q9H165)
T5 sequence: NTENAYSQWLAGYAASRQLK

LexA-BCL11A RID2 S657A = molecular target: T6, LexA-BCL11A RID2 S657A (UniProt Q9H165)
T6 sequence: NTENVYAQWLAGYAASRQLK

LexA-BCL11A RID2 Y656A = molecular target: T7, LexA-BCL11A RID2 Y656A (UniProt Q9H165)
T7 sequence: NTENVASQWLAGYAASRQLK

LexA-BCL11A RID2 Q658A = molecular target: T8, LexA-BCL11A RID2 Q658A (UniProt Q9H165)
T8 sequence: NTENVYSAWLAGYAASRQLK

LexA-BCL11A-(310–325) = molecular target: T9, LexA-BCL11A-(310–325) (UniProt Q9H165)
T9 sequence: PPAMDFSRRLRELAGN

[1] = molecular target: T10, LexA-COUP-TFII-LBD-(144–414) (UniProt P24468)
T10 sequence: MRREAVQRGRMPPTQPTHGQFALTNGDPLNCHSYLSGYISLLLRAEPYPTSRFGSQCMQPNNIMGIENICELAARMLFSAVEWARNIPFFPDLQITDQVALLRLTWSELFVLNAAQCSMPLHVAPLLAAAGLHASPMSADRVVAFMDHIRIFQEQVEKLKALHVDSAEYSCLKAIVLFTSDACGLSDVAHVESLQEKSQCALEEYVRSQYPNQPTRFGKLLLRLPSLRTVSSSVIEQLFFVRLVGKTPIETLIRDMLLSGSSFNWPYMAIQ

LexA-BCL11A-(212–376) = molecular target: T11, LexA-BCL11A-(212–376) (UniProt Q9H165)
T11 sequence: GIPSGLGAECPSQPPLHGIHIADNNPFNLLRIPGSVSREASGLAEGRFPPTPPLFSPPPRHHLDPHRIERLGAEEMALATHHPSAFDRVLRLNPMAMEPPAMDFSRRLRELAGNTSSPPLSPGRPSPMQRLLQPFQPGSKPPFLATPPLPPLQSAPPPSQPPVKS

LexA-BCL11A RID2 Y663A = molecular target: T12, LexA-BCL11A RID2 Y663A (UniProt Q9H165)
T12 sequence: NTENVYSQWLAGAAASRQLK

LexA-BCL11A RID2 G662A = molecular target: T13, LexA-BCL11A RID2 G662A (UniProt Q9H165)
T13 sequence: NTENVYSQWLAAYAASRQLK

binding (LexA-BCL11A RID2 W659A): no binding
binding (LexA-BCL11A-(651–670)): binds
binding (LexA-BCL11A-(594–707)): binds
binding (LexA-BCL11A RID2 L660A): no binding
binding (LexA-BCL11A RID2 V655A): no binding
binding (LexA-BCL11A RID2 S657A): no binding
binding (LexA-BCL11A RID2 Y656A): no binding
binding (LexA-BCL11A RID2 Q658A): binds
binding (LexA-BCL11A-(310–325)): binds
binding [1]: binds
binding (LexA-BCL11A-(212–376)): binds
binding (LexA-BCL11A RID2 Y663A): no binding
binding (LexA-BCL11A RID2 G662A): binds
B1: AAD-COUP-TFII-LBD-(144–414) (domain or fragment, UniProt P24468 144-414)
chain: MRREAVQRGRMPPTQPTHGQFALTNGDPLNCHSYLSGYISLLLRAEPYPTSRFGSQCMQPNNIMGIENICELAARMLFSAVEWARNIPFFPDLQITDQVALLRLTWSELFVLNAAQCSMPLHVAPLLAAAGLHASPMSADRVVAFMDHIRIFQEQVEKLKALHVDSAEYSCLKAIVLFTSDACGLSDVAHVESLQEKSQCALEEYVRSQYPNQPTRFGKLLLRLPSLRTVSSSVIEQLFFVRLVGKTPIETLIRDMLLSGSSFNWPYMAIQ
